Data as given in patent US10941114B2, “Small molecule lipid II inhibitors” (University Of Maryland, Baltimore, priority 2015, dated 2021).
Structures can show the parent of a compound that is named as a salt. At least one structure is not confirmed: it was looked up by name or label, or the drawing left a doubt. Some compounds share one wording; it may come from a single statement.

assay: Surface Plasmon Resonance determination of Lipid II binding; conditions: SPR, immobilized 3-LII, compounds at 10 μM
Description: Short-chain water-soluble LII containing a lipid tail of three isoprene units (3-LII) was generated and purified essentially according to methods known in the art. See Breukink et al., Lipid II is an intrinsic component of the pore induced by nisin in bacterial membranes. J. Biol. Chem. 278(22):19898-19903, 2003, the contents of which are hereby incorporated by reference. Typically, M. flavus vesicles (120 μmol lipid-Pi) were incubated together with 500 μmol UDP-GlcNAc, 500 μmol UDP-MurNAC-pentapeptide and 400 μmol farnesyl phosphate in 100 mM Tris-HCl pH 8.0, 5 mM MgCl2. The incubation period was approximately two hours at room temperature for 3-LII (3-P). The synthesis of 3-Lipid II was followed by RP-8 reversed phase TLC (Merck™) developed with 75% methanol. For purification, the membranes were removed by centrifugation at 40,000×g; the supernatant was collected and loaded on a C18 HPLC column and eluted with a linear gradient from 50 mM ammonium bicarbonate to 100% methanol in 30 minutes. Farnesyl-Lipid II (3-Lipid II) eluted at approximately 60% methanol. Its identity was confirmed by mass spectroscopy.
Surface Plasmon Resonance binding experiments were carried out on a BIAcore T100 system (BIAcore™ Inc., Piscataway, N.Y.) at 25° C. The assay buffer was 10 mM HEPES, 150 mM NaCl, 0.05% surfactant P20, pH 7.4 (+3 mM EDTA) supplemented with 10% DMSO. 3-Lipid II (50 RUs) was immobilized on CMS sensor chips using the amine-coupling chemistry recommended by the manufacturer. For initial determination of binding, compounds were introduced into the flow-cells (30.mu·1/min) in the running buffer at 10 μM. Resonance signals were corrected for nonspecific binding by subtracting the background of the control flow-cell. Binding to immobilized 3-LII on the chip surface was determined and scored “yes” in Table 5 when more than 20 Resonance Units or RUs were detected. Detection of less than 20 RUs was scored as “no”, meaning no significant binding to LII. After each analysis, the sensor chip surfaces were regenerated with 50 mM NaOH for 30 seconds at a flow rate 100 μL/min, and equilibrated with the buffer prior to next injection. For binding kinetics studies, binding isotherms were analyzed with manufacturer-supplied software for BIAcore™ T100.

Row | Structure (SMILES) | Lipid II Binding
1 | Cc1cc(-c2ccc(C)c(C)c2)cc(-c2ccc(C)c(C)c2)[o+]1 [2,4-bis(3,4-dimethylphenyl)-6-methylpyrylium boron tetrafluoride salt] | no (Detection of less than 20 RUs was scored as “no”, meaning no significant binding to LII)
2 | Cc1cc(/C=C/c2ccc(N(C)C)cc2)cc(C)[o+]1 [(E)-4-(4-(dimethylamino)styryl)-2,6-dimethvlpyrylium boron tetrafluoride salt] | no (Detection of less than 20 RUs was scored as “no”, meaning no significant binding to LII)
3 | Cc1ccc(-c2cc(/C=C/c3cc4c5c(c3)CCCN5CCC4)[o+]c(-c3ccc(C)cc3)c2)cc1 [(E)-2-(2-(1,2,3,5,6,7-hexahydropyrido [3,2,1-ij]quinolin-9-yl)vinyl)-4,6-di-p-tolylpyrylium boron tetrafluoride salt] | yes (scored “yes” in Table 5 when more than 20 Resonance Units or RUs were detected)
4 | Cc1ccc(-c2cc(C)[o+]c(-c3ccc(C)cc3)c2)cc1 [2-methyl-4,6-di-p-tolylpyrylium boron tetrafluoride salt] | no (Detection of less than 20 RUs was scored as “no”, meaning no significant binding to LII)
5 | Cc1ccc(-c2cc(/C=C/c3cn(C)c4ccccc34)[o+]c(-c3ccc(C)cc3)c2)cc1 [(E)-2-(2-(1-methyl-1H-indol-3-yl)vinyl)-4,6-di-p-tolylpyrylium boron tetrafluoride salt] | yes (scored “yes” in Table 5 when more than 20 Resonance Units or RUs were detected)
6 | Cc1ccc(-c2cc(/C=C/C=C/c3ccc(N(C)C)cc3)[o+]c(-c3ccc(C)c(C)c3)c2)cc1C [2-((1E,3E)-4-(4-(dimethylamino)phenyl)buta-1,3-dien-1-yl)-4,6-bis(3,4~ dimethylphenyl) pyrylium boron tetrafluoride salt] | yes (scored “yes” in Table 5 when more than 20 Resonance Units or RUs were detected)
7 | Cc1cc(-c2ccc(Cl)cc2)cc(-c2ccc(Cl)cc2)[o+]1 [2,4-bis(4-chlorophenyl)-6-methylpyrylium boron tetrafluoride salt] | no (Detection of less than 20 RUs was scored as “no”, meaning no significant binding to LII)
8 | Cc1ccc(-c2cc(/C=C/c3cn(C)c4ccccc34)[o+]c(-c3ccc(C)c(C)c3)c2)cc1C [(E)-2,4-bis(3,4-dimethylphenyl)-6-(2-(1-methyl-1H-indol-3-yl)vinyl)pyrylium boron tetrafluoride salt] | yes (scored “yes” in Table 5 when more than 20 Resonance Units or RUs were detected)
9 | Cc1cc(-c2ccc(C(C)(C)C)cc2)cc(-c2ccc(C(C)(C)C)cc2)[o+]1 [2,4-bis(4-(tert-butyl)phenyl)-6-methylpyrylium boron tetrafiuoride salt] | no (Detection of less than 20 RUs was scored as “no”, meaning no significant binding to LII)
10 | Cc1ccc(-c2cc(/C=C/c3c[nH]c4ccccc34)[o+]c(-c3ccc(C)cc3)c2)cc1 [(E)-2-(2-(1H-indol-3-yl)vinyl)-4,6-di-p-tolylpyiylium boron tetrafluoride salt] | yes (scored “yes” in Table 5 when more than 20 Resonance Units or RUs were detected)
11 | C(=C\c1c[nH]c2ccccc12)/c1cc(-c2ccccc2)cc(-c2ccccc2)[o+]1 [(E)-2-(2-(1H-indol-3-yl)vinyl)-4,6-diphenylpyrylium boron tetrafluoiide salt] | yes (scored “yes” in Table 5 when more than 20 Resonance Units or RUs were detected)
12 | Cc1ccc(-c2cc(/C=C/c3c[nH]c4ccccc34)[o+]c(-c3ccc(C)c(C)c3)c2)cc1C [(E)-2-(2-(1H-indol-3-yl)vinyl)-4,6-bis(3,4-dimethylphenyl) pyrylium boron tetrafluoride salt] | yes (scored “yes” in Table 5 when more than 20 Resonance Units or RUs were detected)
13 | CN(C)c1ccc(/C=C/c2cc(-c3ccc(C(C)(C)C)cc3)cc(-c3ccc(C(C)(C)C)cc3)[o+]2)cc1 [(E)-2,4-bis(4-(tert-butyl)phenyl)-6-(4-(dimethylamino)styryl)pyrylium boron tetrafluoride salt] | yes (scored “yes” in Table 5 when more than 20 Resonance Units or RUs were detected)
14 | Cc1cc(/C=C/C=C/c2ccc(N(C)C)cc2)cc(C)[o+]1 [4-((1E,3E)-4-(4-(dimethylamino)phenyl)buta-1,3-dien-1-yl)-2,6-dimethylpyrylium boron tetrafluoride salt] | no (Detection of less than 20 RUs was scored as “no”, meaning no significant binding to LII)
15 | CN(C)c1ccc(/C=C/c2cc(-c3ccccc3)cc(-c3ccccc3)[o+]2)cc1 [(E)-2-(4-(dimethylamino)styryl)-4,6-diphenylpyrylium boron tetrafluoride salt] | yes (scored “yes” in Table 5 when more than 20 Resonance Units or RUs were detected)
16 | CCc1ccc(-c2cc(C)[o+]c(-c3ccc(CC)cc3)c2)cc1 [2,4-bis(4-ethylphenyl)-6-methylpyrylium boron tetrafluoride salt] | no (Detection of less than 20 RUs was scored as “no”, meaning no significant binding to LII)
17 | CCc1ccc(-c2cc(/C=C/c3c[nH]c4ccccc34)[o+]c(-c3ccc(CC)cc3)c2)cc1 [(E)-2-(2-(1H-indol-3-yl)vinyl)-4,6-bis(4-ethylphenyl) pyrylium boron tetrafluoride salt] | yes (scored “yes” in Table 5 when more than 20 Resonance Units or RUs were detected)
18 | Cc1ccc(-c2cc(/C=C/c3cc4c5c(c3)CCCN5CCC4)[o+]c(-c3ccc(C)c(C)c3)c2)cc1C [drawing 122, (E)-2,4-bis(3.4-dimethyiphenyl)-6-(2-(1,2,3,5,6,7-hexahydropyrido [3,2,1-ij]quinolin-9-yl)vinyl)pyrylium boron tetrafluoride salt] | yes (scored “yes” in Table 5 when more than 20 Resonance Units or RUs were detected)
19 | CN(C)c1ccc(/C=C/c2cc(-c3ccc(Br)cc3)cc(-c3ccc(Br)cc3)[o+]2)cc1 [drawing 88, (E)-2,4-bis(4-bromophenyl)-6-(4-(dimethylamino)styryl)pyrylium boron tetrafluoride salt] | yes (scored “yes” in Table 5 when more than 20 Resonance Units or RUs were detected)
20 | Cc1ccc(-c2cc(/C=C/c3ccc(N(C)C)cc3)[o+]c(-c3ccc(C)c(C)c3)c2)cc1C [(E)-2-(4-(dimethylamino)styryl)-4,6-bis(3,4-dimethylphenyl) pyrylium boron tetrafluoride salt] | yes (scored “yes” in Table 5 when more than 20 Resonance Units or RUs were detected)
21 | Clc1ccc(-c2cc(/C=C/c3c[nH]c4ccccc34)[o+]c(-c3ccc(Cl)cc3)c2)cc1 [(E)-2-(2-(1H-indol-3-yl)vinyl)-4,6-bis(4-chlorophenyl) pyrylium boron tetrafluoride salt] | yes (scored “yes” in Table 5 when more than 20 Resonance Units or RUs were detected)
22 | Brc1ccc(-c2cc(/C=C/c3c[nH]c4ccccc34)[o+]c(-c3ccc(Br)cc3)c2)cc1 [(E)-2-(2-(1H-indol-3-yl)vinyl)-4,6-bis(4-bromophenyl) pyrylium boron tetrafluoride salt] | yes (scored “yes” in Table 5 when more than 20 Resonance Units or RUs were detected)
23 | Cc1ccc(-c2cc(/C=C/c3ccc(N(C)C)cc3)[o+]c(-c3ccc(C)cc3)c2)cc1 [(E)-2-(4-(dimethylamino)styryl)-4,6-di-p-tolylpyrylium boron tetrafluoride salt] | yes (scored “yes” in Table 5 when more than 20 Resonance Units or RUs were detected)
24 | CCc1ccc(-c2cc(/C=C/c3ccc(N(C)C)cc3)[o+]c(-c3ccc(CC)cc3)c2)cc1 [(E)-2-(4-(dimethylamino)styryl)-4,6-bis(4-ethylphenyl) pyryliurn boron tetrafluoride salt] | yes (scored “yes” in Table 5 when more than 20 Resonance Units or RUs were detected)
25 | Cc1ccc(-c2cc(/C=C/C=C3/N(C)c4ccccc4C3(C)C)[o+]c(-c3ccc(C)cc3)c2)cc1 [drawing 117, 2,4-di-p-tolyl-6-((1E,3E)-3-(1,3,3-trimethylindolin-2-ylidene)prop-1-en-1-yl)pyrylium boron tetrafluoride salt] | yes (scored “yes” in Table 5 when more than 20 Resonance Units or RUs were detected)
26 | Cn1cc(/C=C/c2cc(-c3ccccc3)cc(-c3ccccc3)[o+]2)c2ccccc21 [(E)-2-(2-(1-methyl-1H-indol-3-yl)vinyl)-4,6-diphenylpyrylium boron tetrafluoride salt] | yes (scored “yes” in Table 5 when more than 20 Resonance Units or RUs were detected)
